Results as given in PubChem BioAssay AID1347073 (National Center for Advancing Translational Sciences (NCATS), 2019).
Among all 45,000 compounds or so, about 200 (0.44%) were called active. Not shown: some 7% with an inconclusive outcome. Calls come from the whole dose curve; as a rule, active = well fitted activation curve with a large enough effect; inconclusive = small, poorly fitted or top-dose-only effect; inactive = no such curve, though single readings can be large or run the other way. This is one part of the list.

Test: qHTS of TDP-43 Inhibitors: NCGC Sytravon Library Screen; note: 0% is about no effect; nearly all actives have a fitted effect of over 55% in size
Conditions: yeast TDP-43 toxicity rescue, BacTiter-Glo growth, 24 h; series mostly up to 46.1 µM; growth rescue (activation): at the top concentration
Summary of the method: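 TDP-43-expressing yeast, pregrown in raffinose, seeded at OD600 0.02 in galactose medium with compound for 24 hr at 30 deg C. Growth read by BacTiter-Glo luminescence, so rescue of toxicity appears as activation.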

Row | SMILES | growth rescue (activation)
1 | CCOC(=O)C1CCN(S(=O)(=O)c2ccc(OC)c(C(=O)N3CCCCCC3)c2)CC1 | inactive: -4.67%
2 | COc1ccc(NS(=O)(=O)c2ccc(S(=O)(=O)N3CCCC3)cc2)cc1 | inactive: -8.05%
3 | CCCn1c(N)c(N(CCOC)C(=O)c2ccc(F)cc2F)c(=O)[nH]c1=O | inactive: -17.3%
4 | CC(C)CCN(C(=O)Cc1ccccc1F)c1c(N)n(Cc2ccccc2)c(=O)[nH]c1=O | inactive: 11.8%
5 | CCc1ccc(OCC(=O)NC(C)(C)C)cc1 | inactive: -7.93%
6 | CC(=O)c1cccc(-c2cnc3c(NC=O)cc(-c4cccc(C(=O)N(C)C)c4)cn23)c1 | inactive: 12.1%
7 | CC1=CC(C)(C)n2c(O)c(N=N)c3c(C)ccc1c32 | inactive: 1%
8 | O=C(Nc1nnc([C@H]2C[C@H](O)[C@@H](CO)O2)s1)C(c1ccccc1)c1ccccc1 | inactive: 8.91%
9 | CSc1ccc(/C=N/n2c(C)nnc2C)cc1 | inactive: -6.96%
10 | Cc1cc(C(=O)OCC(=O)N2C(C)CCCC2C)c2ccccc2n1 (configuration not stated) | inactive: -18.5%
11 | COCCCNC(=O)CN(c1cc(Cl)ccc1OC)S(=O)(=O)c1ccc(C)c([N+](=O)[O-])c1 | inactive: -0.359%
12 | COc1ccc(NS(=O)(=O)c2cc(NC(=O)c3ccco3)ccc2N2CCCCC2)cc1 | inactive: -13.8%
13 | COc1cc(C2C3=C(CCCC3=O)Nc3c2c(C)nn3-c2cccc(C)c2)cc(OC)c1O (configuration not stated) | inactive: 12.2%
14 | Cc1ccc(-c2nc3c4c(-c5ccccc5)c(-c5ccccc5)oc4ncn3n2)cc1 | inactive: 5.71%
15 | Cc1ccc(SCc2ccc(C(=O)Nc3ccccc3Br)cc2)cc1 | inactive: 18.4%
16 | O=C(c1ccc(Cl)c(S(=O)(=O)N2CCCC2)c1)N1CCN(c2ccccc2F)CC1 | inactive: 24.9%
17 | O=C(NNC1CC(=O)N(c2ccc(Br)cc2)C1=O)c1ccccn1 (configuration not stated) | inactive: 3.73%
18 | C/C(N)=C(/C#N)C(=O)COC(=O)C1Cc2ccccc2CN1S(C)(=O)=O (configuration not stated) | inactive: -7.81%
19 | Cc1ccc(CN2CCN(CC3CC4C=CC3C4)CC2)cc1 (configuration not stated) | inactive: -3.62%
20 | Cc1nnc(C)n1/N=C/c1ccccn1 | inactive: -1.54%
21 | Cc1c(/C=C(\C#N)C(=O)NCc2ccccc2)cc(C#N)n1C | inactive: 9.84%
22 | O=C(C1CCN(S(=O)(=O)c2cccs2)CC1)N(c1ccccn1)C1CCCCC1 | inactive: 0.34%
23 | CS(=O)(=O)c1cccc(C(=O)OCC(=O)c2ccc3c(c2)OCCO3)c1 | inactive: 21.9%

Row | SMILES | growth rescue (activation)
24 | O=[N+]([O-])c1cc2c(cc1C=Nc1ccccc1)OCO2 | inactive: 8.94%
25 | COc1ccc2c(C)cc3nncn3c2c1 | inactive: 8.62%
26 | CCc1nc2sc3c(O)cc(=O)[nH]c3c2cc1C | inactive: -2.97%
27 | COc1ccc(S(=O)(=O)N2CCOCC2)cc1NC(=O)Cc1c(Cl)cccc1Cl | inactive: 5.28%
28 | COc1ccc(C2=NN(C(C)=O)C(c3cccs3)C2)cc1OC (configuration not stated) | inactive: -0.982%
29 | COCCN(CC(=O)Nc1cccc(C)c1C)C(=O)c1ccc2c(c1)OCO2 | inactive: 14.1%
30 | C/C(=N\Nc1ccc(C(F)(F)F)cn1)c1ccc(S(=O)(=O)NCc2ccco2)cc1 | inactive: -12.5%
31 | Cc1ccc(NC(=O)COC(=O)c2cccc3c(=O)c(C)c(-c4ccccc4)oc23)cc1 | inactive: -0.863%
32 | COCCNC(=O)C1CCCN(C(=O)COCc2ccccc2)CC1 (configuration not stated) | inactive: -6.47%
33 | CCN(CC)CCCNc1nc2ccccc2c2nc(-c3ccncc3)nn12 | inactive: -10.2%
34 | O=C(NCC1CC1)C1Cc2c(-c3ccc(Cl)cc3)ccnc2O1 (configuration not stated) | inactive: 18.6%
35 | Cc1ccc(NC(=O)CCC(=O)c2ccc(F)cc2)cc1Cl | inactive: 14.7%
36 | O=C(COC(=O)C12CC3CC(CC(Cl)(C3)C1)C2)N1CCCCC1 | inactive: -6.22%
37 | NC(=O)c1nsc(C(=O)N(c2cccc(F)c2)C(C(=O)NC2CCCC2)c2ccc(O)cc2)c1N (configuration not stated) | inactive: 13.1%
38 | CCOC(=O)C1(CCCc2ccccc2)CCN(C(=O)c2cnc(C)cn2)CC1 | inactive: -5.06%
39 | CC(C)N1C(=O)NC2(c3ccccc3)N(C)C(=O)N(C)C12c1ccccc1 (configuration not stated) | inactive: -1.15%
40 | Cc1cccc(C(=O)C2CCN(S(=O)(=O)c3ccc(C(=O)O)cc3)CC2)c1 | inactive: 8.85%
41 | CCC(C(=O)NCc1ccncc1)c1ccccc1 (configuration not stated) | inactive: -10.9%
42 | Cc1nc2ccc(NC(=S)N3CCC(C)CC3)cc2nc1C | inactive: 9.63%
43 | Cc1cccc(Cc2nnc(CCC(=O)N(C)C3CCOC3)o2)c1 (configuration not stated) | inactive: 8.42%
44 | COc1ccccc1C(=O)Nc1nnc([C@@H]2C[C@H](O)[C@@H](CO)O2)s1 | inactive: -0.326%
45 | COc1ccc(N(C(=O)c2ccco2)C(C(=O)NC2CCCC2)c2ccccc2)cc1 (configuration not stated) | inactive: 9.52%
46 | COc1ccc(OC)c(NC(=O)CC2C(=O)NCCN2C(=O)c2ccccc2)c1 (configuration not stated) | inactive: 12%

Row | SMILES | growth rescue (activation)
47 | COc1ccc(Cn2c(-c3ccccc3)nc3c(c(=O)c4ccccc4n3C)c2=O)cc1 | inactive: 13.1%
48 | O=C(Cc1sc(Nc2ccccc2)nc1-c1ccccc1)NCc1ccccc1 | inactive: 6.95%
49 | CN(c1ccccc1)S(=O)(=O)c1ccc(C(=O)Nc2nnc(C3CC3)s2)cc1 | inactive: 22.1%
50 | COc1ccc(-c2nn(CCC(=O)O)cc2/C=N/NC(N)=S)cc1 | inactive: 10.5%
51 | CCOC(=O)C1C(c2ccc(C(=O)O)cc2)NC(=O)NC1(O)C(F)(F)F (configuration not stated) | inactive: 0.53%
52 | COc1ccc([N+](=O)[O-])cc1C(=O)Nc1ccc(OCC(=O)N2CCOCC2)cc1 | inactive: 17.2%
53 | O=P(Cc1ccncc1)(c1ccccc1)c1ccccc1 | inactive: 12.3%
54 | COc1ccc(/C=C2/C(=O)N(c3nc4ccccc4s3)N=C2CSc2ccc(Cl)cc2)cc1 | inactive: -18.3%
55 | O=C(Nc1ccc(Cl)cc1)C1CCN(C(=O)c2cccs2)CC1 | inactive: 18.6%
56 | O=C(CC(Cc1ccccc1)C(=O)O)Nc1ccc(Cl)c(Cl)c1 (configuration not stated) | inactive: -15.8%
57 | COc1cc([N+](=O)[O-])cc([N+](=O)[O-])c1NC(=O)N1CCOCC1 | inactive: 22.1%
58 | CCOc1ccc(S(=O)(=O)Nc2ccccc2C(=O)N2CCOCC2)cc1 | inactive: 4.64%
59 | Cc1cccnc1NC(=O)C(c1ccccc1)c1ccccc1 | inactive: -2.51%
60 | COc1cc2c(cc1OC)CN(CC(=O)Nc1ccc(F)cc1F)CC2 | inactive: 8.27%
61 | C=CCc1cc(C=O)cc(OCC)c1O | inactive: -1.84%
62 | CCOC(=O)C1=C(C)NC(=S)N(C=O)C1c1ccccc1 (configuration not stated) | inactive: 5.98%
63 | NC(=O)c1nn(-c2ccccc2)nc1NC(=O)CN1CCCC1 | inactive: 26.2%
64 | O=C(NCCCN1CCc2ccccc2C1)C1CCN(S(=O)(=O)N2CCC3(CC2)OCCO3)CC1 | inactive: -2.99%
65 | CCN(C(=O)CN1C(=O)c2ccccc2Sc2ccc(C(=O)OC)cc21)c1cccc(C)c1 | inactive: 4.32%
66 | CCCn1nnc(NC(=S)NC(=O)c2cccs2)n1 | inactive: -2.77%
67 | Cc1nccc2[nH]c(=O)c(C(=O)NC3CCCCC3C)cc12 (configuration not stated) | inactive: 12.5%
